Here are results for 56 variants from the RNAGym collection of RNA variant scans (doi:10.7554/elife.90254).

To fix the notation:
B1: LINE1-mini (parent)
chain: GGCAGAGCUCAACACAGCGUGGCAAAGUGGCUGUGGCUAGACUGCC

Read counts are not given, so values of variants with three or more changes are uncertain.

This series covers variants of B1. Briefly: self-cleavage, relative activity (ratio to wild type); higher = more cleavage; in vitro, sequencing; the parent is a self-cleaving ribozyme.
As for GGCAAAGCUCAACACUACGUGGCAAAGUGGCUGUGGCCAGACUGCC [G5A A16U G17A U38C], the self-cleavage was 0.14.

GGCAAAGCUCGACAUAGCGUGGCCAAGUGGCUGUGGCUAGACGGCC [G5A A11G C15U A24C U43G]: the self-cleavage came out at 0.02.

Turning to GGCAAAGUUCAACACAGCGUGGCAUAGUGACUGUGGCCAGACUGCC [G5A C8U A25U G30A U38C], the self-cleavage worked out at 0.08.

As to GGCAAAGCUCACCACAGCGUGGCAAUGUGGCUGUGGCUAGACUGCC [G5A A12C A26U], the self-cleavage was 0.04.

As for GGCAAAGCUCUACACAGCGUGGCAAAGUGGGUGUGGCUAGACUGCC [G5A A11U C31G], the self-cleavage came out at 0.01.

Take GGCAAAGCUCACCACACCGGGGCAAACUGGCGGUGCCUAGACUACC [G5A A12C G17C U20G G27C U32G G36C G44A]: the self-cleavage stood at 0.01.

GGCAAAGCUCAACACCGCGUGGCAAAGUGGCUGUGGCGAGAUUGCC [G5A A16C U38G C42U]: the self-cleavage was 0.01.

On to GGCAAAGCUCUACACAGCGUGGCAAAGUGACUGUGGCUAGACUGCC [G5A A11U G30A], for which the self-cleavage was determined as 0.02.

Take GGCAAAGGUCAACACAGCGUGGCAAAGGCGCUGUGGCUAGACUGCC [G5A C8G U28G G29C]: the self-cleavage came to 0.07.

Consider GGCAAAGGUCAACACAGCGUGGCAAAGUGGCUGUGGCUAGACUGUC [G5A C8G C45U], for which the self-cleavage was found to be 0.28.

For the variant GGCAAAGCUCAGCACAGCGUGGCAAAGUGCCUGCGGCUAGACUGCU [G5A A12G G30C U34C C46U], the self-cleavage amounted to 0.16.

GGCAAAGCUCAACCCAGCGUGGCAAAGUGGCUGUGGCUAGACAGCC [G5A A14C U43A]: the self-cleavage was 0.12.

In the case of GGCAAAGCUCAGCACAUGGUAGCAAAGUGGCUGUGGCUAGGCUGCC [G5A A12G G17U C18G G21A A41G], the self-cleavage is 0.02.

Take GGCAAAGCUCAACACCGCGUGGUAAAUUGGCUGUGACUAAAAAGCC [G5A A16C C23U G27U G36A G40A C42A U43A]: the self-cleavage stood at 0.05.

On to GGCAAAGCUCAACACAGCGUGGCAAAGUGGCUGUGGCUGGACUGAC [G5A A39G C45A], for which the self-cleavage was found to be 0.02.

As to GGCAAAGCUCAACUCAGCGUGGCAAAGUGGCUGUGGCUACACAGAC [G5A A14U G40C U43A C45A], the self-cleavage turned out to be 0.04.

Take GGCAAAGCUCACCACAGCGUGGCAAAGAGGGUGUGGCUAGACUGCC [G5A A12C U28A C31G]: the self-cleavage amounted to 0.02.

In the case of GGCAAAGUUCAACACAGCGUGGCAAAGUGGCUGUGGCUAUACUGCC [G5A C8U G40U], the self-cleavage turned out to be 0.09.

Regarding GGCAAAGCUCAACUCAGUGUGAAAAAGCGGGUGUGGCUAGACUGCC [G5A A14U C18U G22A C23A U28C C31G], the self-cleavage amounted to 0.03.

Consider GGCAAAGCUCAACACAGCGUGGCAAGGUGGCUCUGGCUAGACUGCC [G5A A26G G33C], for which the self-cleavage is 0.07.

With GGCAAAGCUCAACCACGCGUUGCAAAGUGGCUGUUGCUAGACUGCC [G5A A14C C15A A16C G21U G35U], the self-cleavage was determined as 0.02.

For the variant GGCAAAGCUCAACACAGCGUGGCCAAGUGGCUGUGAAUAGACUGGC [G5A A24C G36A C37A C45G], the self-cleavage came to 0.04.

Take GGCAAAGCUCAACACUGCGUGGCAAAGUGGCUGUCGCUAGACUGCC [G5A A16U G35C]: the self-cleavage came to 0.11.

With GGCAAAGCUAGACACAGCGUGGCAAAGUGGCUGUGGCUAGACUGCC [G5A C10A A11G], the self-cleavage stood at 0.02.

On to GGCAAAGCUCGACAGAGCGUGGCAAAGUUGCUGUGGCUAGACUGCC [G5A A11G C15G G29U], for which the self-cleavage was 0.03.

On to GGCAAAGCUCUACACAGCGUGGCAAAGUUGCUGUGGCUUGACUGCC [G5A A11U G29U A39U], for which the self-cleavage came to 0.03.

Consider GGCAAAGCUCAACACAGCGUGGCAAUGUGGCGGUGGCUAUACUGCC [G5A A26U U32G G40U], for which the self-cleavage came to 0.03.

Consider GGCAAAGUUCAACACAGCGUGGCAAAGAGGCUGUGGCUAGACUGCC [G5A C8U U28A], for which the self-cleavage is 0.12.

On to GGCAAAGGUCAACACAGCGUGGCAAAGUGGCUGUGGCUAGACUGCA [G5A C8G C46A], for which the self-cleavage came to 0.15.

Take GGCAAAGCUCAACACAGCGUGGCGAAGUGGCUGUGGCGAGACUGGC [G5A A24G U38G C45G]: the self-cleavage came out at 0.01.

In the case of GGCAAAGCUAACCACAGCGUGGCAAAGUGGCUGUGGCUAGACUGCC [G5A C10A A12C], the self-cleavage was 0.01.

For GGCAAAGAUAAACACAGCGUUGCAAAGUGGCUGUGGCUAGACUGCC [G5A C8A C10A G21U], the self-cleavage worked out at 0.04.

With GGCAAAGCUCAACACAGCGUGGCAACGUGACUGUGGCGAGACUGCC [G5A A26C G30A U38G], the self-cleavage came out at 0.01.

As to GGCAAAGCUCAGCACAUCGUGGCAAAGUGGCUCUGGCUAGACUGCC [G5A A12G G17U G33C], the self-cleavage came out at 0.1.

Regarding GGCAAAGCUCAACACAGCGUGGCAAUGAGGCUGUGACUAGACUGCC [G5A A26U U28A G36A], the self-cleavage came out at 0.06.

With GGCAAAGCUCAACACAGCGUGGCUAAGUGGCUGUGGCUAGACUGCU [G5A A24U C46U], the self-cleavage came out at 0.09.

Consider GGCAAAGCUCAACACAGCGUGGCACAGUGGCUGUGACUAGACUGAU [G5A A25C G36A C45A C46U], for which the self-cleavage is 0.05.

Regarding GGCAAAGCUCAACACAGCGUGGCACAGUGGCUGAGGCUUGACUGCC [G5A A25C U34A A39U], the self-cleavage amounted to 0.03.

Regarding GGCAAAGCUAGACACAGAGUGGCAAAGUGGCUGUGGCUAGACUGCC [G5A C10A A11G C18A], the self-cleavage turned out to be 0.03.

Regarding GGCAAAGCUCUACACAGCGUCGCAAAGUGUCUGUGGCUAGACUGCC [G5A A11U G21C G30U], the self-cleavage amounted to 0.03.

As to GGCAAAGCUCAACCCAGCGGAGGAAAGUGGCUGUGGCUAGACUGCC [G5A A14C U20G G21A C23G], the self-cleavage was 0.1.

Consider GGCAAAGCUCUACACAGCGUGGCAAAGUGCCUGUGGCUAGAGUGCU [G5A A11U G30C C42G C46U], for which the self-cleavage amounted to 0.01.

With GGCAAAGCUCAACACAGCGUGGCAAGGUGGCUGUGGCUAGACGGCC [G5A A26G U43G], the self-cleavage worked out at 0.03.

For GGCAAAGGUCAACACAGCAUGGCAAAGUGGCUGUGGCUAGACUGUC [G5A C8G G19A C45U], the self-cleavage worked out at 0.02.

As to GGCAAAGAUCAACACAGAGUGGCAAAGUGGCUGUGGUUGGACUGCC [G5A C8A C18A C37U A39G], the self-cleavage is 0.38.

GGCAAAGCUCAACUCAGAGUGGCAAAGUGGCUAUGGCUAGACUGCC [G5A A14U C18A G33A]: the self-cleavage turned out to be 0.03.

Turning to GGCAAAGCUCAACACAGCGUGGCUAAGUGACUGUCGCUAGACUGCU [G5A A24U G30A G35C C46U], the self-cleavage came to 0.1.

In the case of GGCAAAGAUCAGCACAGCGUGGCAAAGUGGCUGUGGCUAGACUGCC [G5A C8A A12G], the self-cleavage was determined as 0.18.

Regarding GGCAAAGCUCAUCACAGCGUGGCACAGUGGCUGUAGCUACACUGCC [G5A A12U A25C G35A G40C], the self-cleavage is 0.01.

On to GGCAAAGCUCAACACUGCGUGGCAAAGUGGCUGUGGCUAGACUACC [G5A A16U G44A], for which the self-cleavage was determined as 0.07.

On to GGCAAAGCUCAACCCCGCGUGGCAAAGUGGCUGUGGGUAGACUGCC [G5A A14C A16C C37G], for which the self-cleavage came to 0.25.

Consider GGCAAAGCUCAACACCGCGUGGCAAAGUGACUGUGGCUAGACUGCC [G5A A16C G30A], for which the self-cleavage stood at 0.05.

Consider GGCAAAGCUCAACACAGCGUGGCAAAGUGGCUGUGGCUAGUUUGCC [G5A A41U C42U], for which the self-cleavage is 0.05.

As to GGCAAAGCUCAACACAGCGUGGCAAAGUGGCUGUGGCUAGUAUGCC [G5A A41U C42A], the self-cleavage was determined as 0.06.

For the variant GGCAAAGGUCAACUCAGCGUGGAAAAGUGGGAGUGGCUAGACUGCC [G5A C8G A14U C23A C31G U32A], the self-cleavage is 0.05.

For the variant GGCAAAGCUCAACACUGCUUAGCAAAGUGGGUGUGCCUAGACUGCC [G5A A16U G19U G21A C31G G36C], the self-cleavage was 0.01.
